Results from PubChem BioAssay AID651820 (National Center for Advancing Translational Sciences (NCATS), 2012).
In all, about 340,000 compounds went through this assay and about 12,000 (3.5%) were called active. The shares of active, inactive and inconclusive entries below differ from those in the screen. The call rests on the fitted dose curve; in most records, active means well fitted inhibition curve with a large enough effect; inconclusive means small, poorly fitted or top-dose-only effect, or another doubt; inactive means no such curve, though single readings can be large or run the other way. Potencies of inconclusive entries are left out as doubtful fits.

experiment: qHTS Assay for Inhibitors of Hepatitis C Virus (HCV); conditions: Huh7.5.1 HCVcc-Cre (HCVcc is cell-culture hepatitis C virus) infection, luciferase reporter, 44 h; activity change, negative = inhibition: at 41.8 µM (top of the series) unless noted
Procedure, shortened: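 Reporter virus HCVcc-Cre (~0.5 moi) infects cells exposed to compound; seeding density 1,000 cells/well with 4 h settling beforehand. Luminescence, 15 sec read, taken 44 h post-infection following a 15 min RT substrate incubation.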
On the % scale 0 is the no-effect control and ±100 the full control effect; potency means the concentration at half of the fitted maximal effect; tags describe the fitted curve by direction and shape.

Row | Structure (SMILES) | Potency | activity change, negative = inhibition
1 | O=C(c1cn(-c2ccccc2)nc1-c1cccnc1)N1CCCC(C(F)(F)F)C1 (stereo not drawn) | inconclusive [inhibitor, single point] | –
2 | CCN1CCN(CC(=O)Nc2sc3c(c2C#N)CCC(C)C3)CC1 (stereo not drawn) | active: 35.5 µM | –
3 | COc1ccccc1OCCn1cc(C(=O)c2ccco2)c2ccccc21 | inconclusive [inhibitor, single point] | –
4 | Cc1ccc(-c2cc(C(=O)O)c3cc(Br)ccc3n2)o1 | – | inactive: 19%
5 | CC(=NNC(=O)c1ccncc1)c1cccc(Cl)c1 | – | inactive: 2.7%
6 | CC(NC(=S)Nc1ccc(OC(F)F)c(Cl)c1)C(C)(C)C (stereo not drawn) | active: 11.2 µM | –
7 | COc1cccc(CNCCc2c[nH]c3ccccc23)c1OCc1ccccc1F | inconclusive [inhibitor, single point] | –
8 | N#CCc1nc(-c2cc3ccccc3oc2=O)cs1 | inconclusive [inhibitor, single point] | –
9 | COc1ccc(OC)c(Cc2nnc(CCC(=O)NC3CCCCCCC3)o2)c1 | – | inactive: 12.3%
10 | CC(C)CN(CCCNC(=O)CN1C(=O)COc2ccc(S(=O)(=O)N3CCCC3)cc21)CC(C)C | – | inactive: 2.54%
11 | O=C(CSc1nccn1Cc1ccc(F)cc1)NC1CCCC1 | – | inactive: -15.7%
12 | Cc1cccc(-n2ncc3c(NCc4ccccn4)ncnc32)c1 | inconclusive [inhibitor, partial curve] | –
13 | COc1ccc(-c2nnc(-c3ccc4ccccc4c3)o2)cc1 | – | inactive: 7.69%
14 | COc1ccc(OC)c(NC(=O)CSc2nnc(C3CCCCC3)n2N)c1 | inconclusive [inhibitor, single point] | –
15 | Oc1ccccc1CNCCCNCc1ccccc1O | active: 2.82 µM | –
16 | CCc1cccc(CC)c1NC(=O)CO/N=C(\N)CC(=O)NC1CCCCC1 | – | inactive: -13.3%
17 | CC1(C)SC(=S)N(/N=C/c2ccc(O)cc2)C1N(O)C(=O)Nc1ccc([N+](=O)[O-])cc1 (stereo not drawn) | inconclusive [inhibitor, single point] | –
18 | COc1ccc(CCNC(=O)C2CCN(Cc3nc(-c4cccc(Cl)c4)oc3C)CC2)cc1OC | inconclusive [inhibitor, partial curve] | –
19 | COCC(=O)Nc1ccccc1Br | – | inactive: 21.6%
20 | Cc1cc(=O)oc2cc(OC(C)C(=O)NC3CCCC3)ccc12 (stereo not drawn) | – | inactive: 16.4%
21 | Cc1ccc(C(CC(=O)N2CCOCC2)c2ccco2)cc1 (stereo not drawn) | inconclusive [inhibitor, single point] | –
22 | CCOC(=O)N1CC(C)N(CC(O)CN2CCOCC2)CC1C (stereo not drawn) | – | inactive: 4.04%
23 | CC(Oc1ccc(Br)cc1)C(=O)Nc1ccc(S(=O)(=O)N(C)C2CCN(C)CC2)cc1 (stereo not drawn) | active: 6.31 µM | –
